From PubChem BioAssay AID1963576 (National Center for Advancing Translational Sciences (NCATS), 2024)
Among all 46,000 compounds or so, about 60 (0.1%) were called active. Roughly 3% stayed inconclusive and do not appear here. The call rests on the fitted dose curve; in most records, active means well fitted inhibition curve with a large enough effect; inconclusive means small, poorly fitted or top-dose-only effect; inactive means no such curve, though single readings can be large or run the other way. Some of the results follow.

Assay: Primary qHTS assay for Inhibitors of ovarian cancer metastasis using an organotypic tumor microenvironment (TME) model. Further: nearly all actives have a fitted effect of over 65% in size.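 On activity change, negative = inhibition: plate controls were DMSO wells for no effect and tomatine positive control wells for full effect.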
Details: SKOV3ip1-GFP adhesion/invasion on 3D omental model, fluorescence; series mostly up to 45.8 µM; activity change, negative = inhibition: at the top concentration
Procedure, shortened: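 Adhesion/invasion was scored as fixed GFP-labeled SKOV3ip1 cell counts (488/509 nm), normalized to DMSO and tomatine controls. Cancer cells in serum-free medium, with four compound doses (0.36-46 umol/L), sat 2 hr at RT then 16 hr at 37 C on a 48 hr fibroblast/mesothelial/ECM culture.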

Activity change, negative = inhibition, inactive:
COC(=O)c1sccc1S(=O)(=O)N(CC(=O)NCc1ccc(F)cc1)c1ccccc1 18.3%
Cc1cccc(-n2c(=O)c3c(c4cc(C)ccc4n3C)n(CC(=O)Nc3ccc(C)c(C)c3)c2=O)c1 47.3%
CC(C)(C)NC(=O)Cn1cc(S(=O)(=O)Cc2ccccc2Cl)c2ccccc21 -2.85%
COc1ccccc1N1CCN(c2c3c(nc4nncn24)CCC3)CC1 3.56%
COc1ccc(-c2nc(SCC(=O)NCC3CCCO3)c(-c3ccc(C)cc3)[nH]2)cc1OC (stereo unspecified) -0.499%
CCOC(=O)Cn1c(=N)n(CCOc2ccc(OC)cc2)c2ccccc21 -4.66%
COc1ccc(C)cc1NS(=O)(=O)c1ccc2c(c1)CCCN2C(C)=O 5.05%
Cc1ccc(N(C)S(=O)(=O)c2nnc(NC(=O)c3ccco3)s2)cc1 -6.8%
COc1ccc(-c2c(C#N)c(SCC(=O)Nc3ccc(C)c(C)c3)nc(C)c2C(=O)Nc2ccccc2)cc1OC -2.74%
CCCCNC(=O)CN1CCN(c2ccc(NC(=O)c3ccc(OC)cc3)cc2C(=O)O)CC1 -4.34%
CCc1ccc(C2c3c(-c4cc(C)ccc4O)n[nH]c3C(=O)N2CCO)cc1 (stereo unspecified) 0.477%
Cn1c(SCC(=O)N2CCOCC2)ncc(C(=O)Nc2ccc(F)cc2)c1=O 6.74%
CCc1ccc(NCc2cc3cc4c(cc3n(CC(=O)Nc3ccc(OC)cc3)c2=O)OCO4)cc1 8.24%
COc1ccc(NC(=O)CCCS(=O)(=O)c2nc(-c3ccccc3OC)cc(C(F)(F)F)n2)c(OC)c1 6.3%
CCOC(=O)c1c(S(=O)(=O)NCC(=O)Nc2cccc(SC)c2)c(C)n(C)c1C -40.5%
CCCSc1nc2sc3c(c2c(=O)n1-c1ccc(C)cc1)CCCC3 1.55%
COc1ccc(C(C)NC(=O)CN(c2cc(OC)ccc2OC)S(=O)(=O)c2ccccc2)cc1 (stereo unspecified) 24%
CC1CCN(CCCNC(=O)CN2C(=O)CSc3ccc(S(=O)(=O)N4CCCCC4)cc32)CC1 2.01%
COc1ccc(-n2c(CC3C(=O)Nc4ccc(C)cc43)nc3ccccc3c2=O)cc1 (stereo unspecified) -0.285%
O=C(NCc1ccccc1Cl)c1ccc2c(c1)ncn2-c1cccc(F)c1 -13.2%
COc1cccc(-n2ccnc2SCC(=O)Nc2cccc3ccccc23)c1 1.75%
CCc1cccc(C)c1NC(=O)C1CCN(S(=O)(=O)c2cc(Br)cc3c2N(C(C)=O)CC3)CC1 3.23%
O=C(c1cccs1)N1CCCc2cc(NS(=O)(=O)c3ccc(Br)cc3)ccc21 2.55%
COc1ccc(NC(=O)Nc2cccc(-c3noc(C)n3)c2)cc1 27.2%
COCCn1c(CNC(=O)c2ccccc2C)nc2cccnc21 5.38%
Cc1ccc(C)c(CN2CCC(CNC(=O)C(CC(C)C)N3Cc4ccccc4C3=O)CC2)c1 (stereo unspecified) 5.3%
Brc1cccc(-c2nn(-c3ccccc3)c3c2cnc2cc4c(cc23)OCO4)c1 12.9%
COc1cc(-c2noc(-c3cc4cccc(C)c4oc3=O)n2)cc(OC)c1OC -3.93%
O=c1c2c3c(sc2nnn1CCCCOc1ccc(Cl)cc1)CCCC3 -3.5%
CCCSC1=NC2(CCN(C(=O)NC3CCCCC3)CC2)N=C1c1ccc(OC)cc1 -11.8%
N#C/C(=C/c1ccc(O)cc1)c1nc(-c2ccc(-c3ccccc3)cc2)cs1 -17.7%
O=C(Nc1ccc(F)cc1)c1nc(SCc2ccccc2F)ncc1Cl 13.5%
COc1ccc(-c2nsc(NC(=O)c3oc4ccc(Cl)cc4c3C)n2)cc1 -27.3%
Cc1cc(NC(=O)c2cnn(-c3ccccc3)c2-n2cccc2)ccc1Br 0.451%
Cn1c(C(=O)NCc2ccccc2Cl)cc2sc(Cl)cc21 13.6%
Cc1ccc(OCCn2c(CNc3ccccc3C)nc3ccccc32)cc1 4.87%
Cc1cccc(N(C)C(=O)C2CCC(CNS(=O)(=O)c3cccc4nsnc34)CC2)c1 (stereo unspecified) -12.6%
COc1cccc(CNC(=O)Cn2c(=O)cc(C)c3c(C)nn(C)c32)c1OC 24.1%
O=C(NC1CCCCC1)c1ccc2c(c1)N(Cc1ccc(F)cc1)C(=O)c1ccccc1S2(=O)=O -3.27%
COc1cc(NS(=O)(=O)c2cc(Br)cc3c2N(C(C)=O)C(C)C3)cc(OC)c1 (stereo unspecified) -15.8%
N#CC1=C(N)N(c2ccc(Cl)cc2)C2=C(C(=O)CCC2)C1c1cc(CN2CCOCC2)cs1 (stereo unspecified) 8.33%
COc1cccc(-c2nc3c(C#N)c[nH]n3c2NC2CCCCC2)c1 1.77%
COc1ccc(-c2csc3ncnc(Nc4ccc(OC)cc4OC)c23)cc1 -19.6%
COc1cccc(CNC(=O)CN(c2ccc(C)cc2)S(=O)(=O)N(C)C)c1OC 37.5%
CCc1cccc(NC(=O)Cn2c(=O)n(CC3CCC(C(=O)NC)CC3)c(=O)c3sccc32)c1 (stereo unspecified) 0.891%
CCOC(=O)CSc1nnc(-c2ccc(OC)cc2)o1 40%
CCN(CC)C(=O)c1sc2c(c1C)c(=O)n(-c1ccccc1)c(=O)n2CC(=O)N(CC)c1cccc(C)c1 2.3%
CCCCN(C)C(=O)CN1C(=O)c2cccnc2Oc2ccc(Cl)cc21 7.42%
COc1cc(NC(=O)CCS(=O)(=O)c2ccc(Br)cc2)cc(OC)c1 -9.67%
Cc1ccc(CNC(=O)c2ccc3c(c2)NC(=O)C(CS(=O)(=O)Cc2cccc(C)c2)N3)cc1 (stereo unspecified) 22.5%
Nc1ncnc2c1ncn2[C@@H]1O[C@@H](CO)[C@H](O)[C@H]1O 0.28%
C=C1C(=CC=C2CCC[C@]3(C)[C@@H]([C@H](C)CCCC(C)(C)O)CC[C@@H]23)C[C@@H](O)C[C@@H]1O 0.0997%
Cc1cn2c(=O)cc(COC(=O)COc3ccc(C)c(C)c3)nc2s1 -18.3%
CCCOc1ccc(C(=O)N(Cc2ccc(Cl)cc2)Cc2ccco2)cc1 -3.67%
Cc1c(C(=O)N2CCC(C(=O)Nc3ccc(F)c(Cl)c3)CC2)sc2nc[nH]c(=O)c12 -10.9%
Cc1ccc(NC(=O)Cn2c(=O)ccc3cc(S(=O)(=O)N4CCCC4)ccc32)cc1C 2.51%

outcome, inactive:
COc1ccc(NC(=O)N2CCN(Cc3nc4ccc(C)cc4o3)CC2)cc1OC
CC1=C(c2ccc(C(C)C)cc2)S(=O)(=O)NC1=NCc1ccc(OC(C)C)cc1
Cc1nc(-c2cccc(F)c2)sc1CCNC(=O)Cc1ccc(F)cc1
CCOc1ccccc1-n1c(N)c(C(=O)OC)c2nc3ccccc3nc21
COc1cc(C(=O)Nc2cc(C)c(O)c(-c3nc4cc(Cl)ccc4o3)c2)cc(OC)c1OC
